{"source": "PubChem BioAssay AID602310", "about": "(National Center for Advancing Translational Sciences (NCATS), 2012)", "note": "About 310 (0.076%) of roughly 410,000 compounds were called active. This list was built around the results that the source calls inconclusive (neither active nor inactive); the mix of calls is not that of the screen. The call rests on the fitted dose curve; in most records, active means well fitted curve in the direction sought with a large enough effect; inconclusive means small, poorly fitted or top-dose-only effect; inactive means flat fitted curve, though single readings scatter. Potencies beside an inconclusive call are fits to weak or partial responses and may not hold up. Potency means the concentration at half of the fitted maximal effect; tags describe the fitted curve by direction and shape."}
{"biological_target": "DNA dC->dU-editing enzyme APOBEC-3G (Homo sapiens) (UniProt Q9HC16)", "sequence (Q9HC16 whole entry, looked up)": "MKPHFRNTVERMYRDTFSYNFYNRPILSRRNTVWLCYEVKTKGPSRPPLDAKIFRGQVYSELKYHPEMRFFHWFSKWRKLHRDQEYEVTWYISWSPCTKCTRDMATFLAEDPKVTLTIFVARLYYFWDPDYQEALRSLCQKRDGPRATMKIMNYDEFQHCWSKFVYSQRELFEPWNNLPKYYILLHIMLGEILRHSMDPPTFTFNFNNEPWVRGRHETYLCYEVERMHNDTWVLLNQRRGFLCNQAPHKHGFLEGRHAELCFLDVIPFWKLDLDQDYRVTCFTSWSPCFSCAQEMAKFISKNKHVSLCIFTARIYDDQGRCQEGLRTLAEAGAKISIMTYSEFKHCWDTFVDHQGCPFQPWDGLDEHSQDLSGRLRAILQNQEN", "assay": "qHTS for Inhibitors of Vif-A3G Interactions: qHTS; further: nearly all actives have a fitted effect of over 60% in size", "settings": "HeLa A3G-eYFP + Vif (tagged APOBEC3G with the HIV-1 protein that degrades it), YFP fluorescence, overnight; series mostly up to 46.1 µM", "procedure,_shortened": "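Read-out is eYFP fluorescence (Ex 488/Em 500-530) from Vif-expressing HeLa A3G-eYFP cells; more signal means A3G escaped Vif-mediated degradation. Cells plated overnight, compound pinned in, incubated overnight at 37 deg C.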"}
{"smiles": "Cc1cc2nc(/C=C/c3cccnc3)[nH]c2cc1C", "Potency": "inconclusive: 0.891 µM [inhibitor, partial curve, poor fit]"}
{"smiles": "O=C(C(=Cc1ccc(F)cc1)C(=O)c1ccccc1)c1ccccc1", "Potency": "inconclusive: 12.6 µM [inhibitor, single point]"}
{"smiles": "CN(C)c1ccc(C=O)cc1", "Potency": "inactive"}
{"smiles": "Nc1c(C(=O)Nc2nc3ccccc3s2)sc2nc(-c3cccs3)ccc12", "Potency": "active: 11.2 µM"}
{"smiles": "CN(C)c1ncnc2c1nnn2C1OC(CO)C(O)C1O", "note": "(stereo not given)", "Potency": "inconclusive: 0.562 µM [inhibitor, full curve, poor fit]"}
{"smiles": "CC(C)(C)n1ncc2c(=O)n(Cc3ccc(C#N)cc3F)cnc21", "Potency": "inactive"}
{"smiles": "COc1ccc(/C=C/C(=O)c2ccc([N+](=O)[O-])o2)cc1", "Potency": "inconclusive: 7.94 µM [inhibitor, partial curve]"}
{"smiles": "COc1ccc(-c2nc(-c3ccc(O)cc3O)cs2)cc1OC", "Potency": "inactive"}
{"smiles": "CC(=O)c1cccc(NC(=O)/C=C/c2ccc([N+](=O)[O-])s2)c1", "Potency": "inconclusive: 3.16 µM [inhibitor, full curve, poor fit]"}
{"smiles": "Cc1ccc(S(=O)(=O)Cc2ccc(C(=O)N3CCN(c4cccc(C)c4C)CC3)o2)cc1", "Potency": "inactive"}
{"smiles": "CCOC(=O)N1c2ccccc2Sc2ccccc21", "Potency": "inconclusive: 22.4 µM [inhibitor, single point]"}
{"smiles": "CCCOc1ccccc1C1CC(=O)Nc2cc3c(cc21)OCO3", "note": "(stereo not given)", "Potency": "inconclusive: 0.562 µM [inhibitor, full curve, poor fit]"}
{"smiles": "CN(C)c1ccc(/C=C2\\CCC/C(=C\\c3ccccc3)C2=O)cc1", "Potency": "inconclusive: 22.4 µM [inhibitor, single point]"}
{"smiles": "O=S(=O)(O)c1ccc(N=Nc2ccccc2)cc1", "Potency": "inactive"}
{"smiles": "Cc1noc(NS(=O)(=O)c2ccc(NC(=O)/C=C/c3ccc(Br)cc3)cc2)c1C", "Potency": "inconclusive: 35.5 µM [inhibitor, single point]"}
{"smiles": "COc1ccc(/C=N/NC(N)=S)cc1OC(=O)c1ccccc1", "Potency": "inconclusive: 15.8 µM [inhibitor, single point]"}
{"smiles": "COc1cc(C(C)=O)ccc1OCCN1CCC(Cc2ccccc2)CC1", "Potency": "inactive"}
{"smiles": "COc1cccc(-c2cnc3c(NC=O)cc(-c4cc(OC)c(OC)c(OC)c4)cn23)c1", "Potency": "inconclusive: 17.8 µM [inhibitor, partial curve, poor fit]"}
{"smiles": "COc1ccc(-c2coc3cc4oc(=O)cc(-c5ccccc5)c4cc23)cc1F", "Potency": "inconclusive: 1.58 µM [inhibitor, full curve, poor fit]"}
{"smiles": "Cn1c(SCC(=O)N/N=C/c2ccc([N+](=O)[O-])s2)nnc1-c1ccc(Cl)cc1", "Potency": "inconclusive: 28.2 µM [inhibitor, single point]"}
{"smiles": "COc1cc(C2c3cc4c(cc3OC(N3CCOCC3)C2C)OCO4)cc(OC)c1OC(C)=O", "note": "(stereo not given)", "Potency": "inconclusive: 14.1 µM [inhibitor, single point]"}
{"smiles": "Cc1cc2cc(CN(CC3CCCO3)C(=S)Nc3ccccc3)c(=O)[nH]c2cc1C", "note": "(stereo not given)", "Potency": "inconclusive: 6.31 µM [inhibitor, partial curve, poor fit]"}
{"smiles": "CCC/C(C#Cc1ccc(N(C)C)cc1)=C1/c2ccccc2C(=O)N1c1ccccc1", "Potency": "inconclusive: 7.94 µM [inhibitor, partial curve]"}
{"smiles": "Cc1ccccc1NC(=O)COC(=O)c1ccc(S(C)(=O)=O)c([N+](=O)[O-])c1", "Potency": "inconclusive: 25.1 µM [inhibitor, single point]"}
{"smiles": "CC(NS(=O)(=O)c1cccc(C(=O)O)c1)C12CC3CC(CC(C3)C1)C2", "note": "(stereo not given)", "Potency": "inactive"}
{"smiles": "Nc1c(C(=O)c2ccccc2)sc2nsc(SCCN3CCOCC3)c12", "Potency": "inconclusive: 7.08 µM [inhibitor, partial curve, poor fit]"}
{"smiles": "COc1ccc(Nc2nnc(SCC(=O)NC(=O)Nc3ccc4c(c3)OCCO4)s2)cc1", "Potency": "inconclusive: 25.1 µM [inhibitor, single point]"}
{"smiles": "Cc1nc(NC(=O)c2ccc(OCC(C)C)cc2)sc1Cc1ccc2c(c1)OCO2", "Potency": "inconclusive: 35.5 µM [inhibitor, single point]"}
{"smiles": "Cc1cccc(N(C)C(=O)c2cc3c(=O)[nH]c4ccc(C)cc4c3s2)c1", "Potency": "inconclusive: 1.41 µM [inhibitor, partial curve, poor fit]"}
{"smiles": "C=CC(=O)Oc1ccc(N2Cc3ccccc3C2=O)cc1", "Potency": "inconclusive: 25.1 µM [inhibitor, single point]"}
{"smiles": "COc1cc(OC)cc(C(=O)NCC(=O)Nc2ccc(-c3ccccc3)cc2)c1", "Potency": "inconclusive: 2.51 µM [inhibitor, full curve, poor fit]"}
{"smiles": "CC(CC(=O)Nc1ccc2c(c1)c(=O)n(C)n2Cc1ccc(F)cc1)c1ccccc1", "note": "(stereo not given)", "Potency": "inconclusive: 10 µM [inhibitor, partial curve, poor fit]"}
{"smiles": "COc1ccc(CSCC(=O)Nc2ccccc2SC)cc1", "Potency": "inconclusive: 25.1 µM [inhibitor, single point]"}
{"smiles": "Cc1ccc(Sc2c(CO)c(-c3ccccc3)nn2C)cc1", "Potency": "inactive"}
{"smiles": "Nc1cc(N)cc(N)c1", "Potency": "inactive"}
{"smiles": "COc1ccccc1N(C)c1cc2c(c3c1ccn3C)C1CCC2C1", "note": "(stereo not given)", "Potency": "inactive"}
{"smiles": "COc1ccc(-c2nc(CSc3nncn4c3cc3oc(C)cc34)c(C)o2)cc1", "Potency": "inactive"}
{"smiles": "CCc1nn2c(-c3ccccc3OC)ccnc2c1-c1ccccc1", "Potency": "inactive"}
{"smiles": "Clc1ccc2nc(COc3ccccc3)[nH]c2c1", "Potency": "inconclusive: 3.16 µM [inhibitor, full curve]"}
{"smiles": "N#Cc1nc(-c2ccc(OCc3ccccc3Cl)cc2)oc1N1CCCCCC1", "Potency": "inactive"}
{"smiles": "COc1ccc(S(=O)Cc2ccc(C(=O)N3CCN(c4cccc(C)c4C)CC3)o2)cc1", "note": "(stereo not given)", "Potency": "inconclusive: 2 µM [inhibitor, partial curve, poor fit]"}
{"smiles": "c1cc(-c2ccc3[nH]ccc3c2)n2ccnc2c1", "Potency": "inconclusive: 15.8 µM [inhibitor, single point]"}
{"smiles": "O=C1CCCC(O)=C1C(C#Cc1ccccc1)C1=C(O)CCCC1=O", "Potency": "inconclusive: 35.5 µM [inhibitor, single point]"}
{"smiles": "O=S(=O)(c1ccccc1C(F)(F)F)N1CCN(c2nc(-c3ccccc3)nc3ccccc23)CC1", "Potency": "inactive"}
{"smiles": "NNC(=O)c1cc2c(s1)CCCCCC2", "Potency": "inconclusive: 17.8 µM [inhibitor, single point]"}
{"smiles": "Oc1ccc(Nc2nc(-c3ccc(O)cc3)cs2)cc1", "Potency": "inconclusive: 35.5 µM [inhibitor, single point]"}
{"smiles": "CCOC(=O)CC(=O)c1cc(OC)c(OC)c(OC)c1", "Potency": "inactive"}
{"smiles": "COc1cccc(C2=NOC(C(=O)NCc3ccco3)C2)c1", "note": "(stereo not given)", "Potency": "inconclusive: 10 µM [inhibitor, partial curve]"}
{"smiles": "CN1C2=CC=CC=CC2=[N+](C)C12C([N+](=O)[O-])=CC(=[N+]([O-])[O-])C=C2[N+](=O)[O-]", "note": "(stereo not given)", "Potency": "inconclusive: 3.98 µM [inhibitor, full curve, poor fit]"}
{"smiles": "CC(=O)Oc1ccc2ccccc2c1C(NC(=O)C(C)C)c1cccc([N+](=O)[O-])c1", "note": "(stereo not given)", "Potency": "inactive"}
{"smiles": "CNc1cncc(-c2ccc(CN3CCOCC3)cc2)n1", "Potency": "inconclusive: 35.5 µM [inhibitor, single point]"}
{"smiles": "COCCNC(=S)N/N=C(\\C)c1ccc(Cl)c(Cl)c1Cl", "Potency": "inactive"}
{"smiles": "CCOc1ccc(N(C)S(=O)(=O)c2ccc(-c3cc(C)no3)s2)cc1", "Potency": "inconclusive: 2.24 µM [inhibitor, partial curve, poor fit]"}
{"smiles": "COc1cc(NC(=O)c2cccs2)c(C(=O)OCC(=O)NCc2ccco2)cc1OC", "Potency": "inconclusive: 35.5 µM [inhibitor, single point]"}
{"smiles": "CC(C)CN(C(=O)CSc1nc2ccccc2o1)c1c(N)n(Cc2ccccc2)c(=O)[nH]c1=O", "Potency": "inconclusive: 35.5 µM [inhibitor, single point]"}
{"smiles": "C[n+]1cccc(C2C(C#N)=C(N)Oc3c2ccc2ccccc32)c1", "note": "(stereo not given)", "Potency": "inconclusive: 22.4 µM [inhibitor, partial curve, poor fit]"}
{"smiles": "c1ccc(-n2cnc3cc(NCc4ccco4)ccc32)cc1", "Potency": "inconclusive: 22.4 µM [inhibitor, single point]"}
{"smiles": "Cc1ccc(-c2c[n+](Cc3cccc(Cl)c3)c3n2CCC3)cc1", "Potency": "inactive"}
{"smiles": "O=C1NC(=Nc2ccccc2)S/C1=C\\c1ccccc1", "Potency": "inconclusive: 12.6 µM [inhibitor, partial curve, poor fit]"}
{"smiles": "Cn1c(N)c(C(=O)COC(=O)c2ccc([N+](=O)[O-])o2)c(=O)n(C)c1=O", "Potency": "inconclusive: 35.5 µM [inhibitor, single point]"}
{"smiles": "O=C(CN1CCc2ccccc2C1)NC1CCCC1", "Potency": "inactive"}
{"smiles": "CCOc1cccc(C2c3c(oc4ccccc4c3=O)C(=O)N2c2nc(C)c(C(=O)OC)s2)c1", "note": "(stereo not given)", "Potency": "inactive"}
{"smiles": "CCOC(=O)N/N=C/c1ccc(N(CC)CC)cc1O", "Potency": "inconclusive: 3.98 µM [inhibitor, full curve]"}
{"smiles": "COc1cccc(NC(=O)CSc2nnc(-c3cccs3)n2C)c1", "Potency": "inactive"}
{"smiles": "Nc1[nH]c(=S)nc2nnsc12", "Potency": "inactive"}
{"smiles": "c1ccc(CCn2nnnc2CN2CCCc3ccccc32)cc1", "Potency": "inactive"}
{"smiles": "COc1cc(OC)cc(C(=O)N2CC(=O)Nc3ccccc32)c1", "Potency": "inconclusive: 1.78 µM [inhibitor, full curve]"}
{"smiles": "O=C(Nc1cc([N+](=O)[O-])ccc1F)c1ccc2c(c1)OCCO2", "Potency": "inconclusive: 3.16 µM [inhibitor, single point]"}
{"smiles": "Cc1ccc(-c2cc(C(=O)N/N=C/c3c[nH]c4ccccc34)n[nH]2)o1", "Potency": "inconclusive: 15.8 µM [inhibitor, single point]"}
{"smiles": "CCOC(=O)c1c(C)[nH]c(C(=O)N/N=C\\c2ccccc2Cl)c1C", "Potency": "inconclusive: 7.08 µM [inhibitor, full curve]"}
